In publication PMC7527816, “Molecular basis for the bifunctional Uba4–Urm1 sulfur‐relay system in tRNA thiolation and ubiquitin‐like conjugation” (The EMBO Journal, 2020):
No constants are given. Whether binding was seen depends on the method and setting. Some binding calls cover weakened binding; strength is not graded here. For some assays here: Where a sequence is shown, tags or fusion partners need not be part of it.

Key:
[1] = target: CtUba4 rhodanese-like domain R398A/R399A (Chaetomium thermophilum) (UniProt G0SC54); assay: SEC + SEC-MALS; SEC profiles and static light scattering (RALS/LALS) after Superdex 75 10/300 GL; 1 mg/ml; 20 mM Tris pH 7.5, 150 mM NaCl, 1 mM DTT; both purified
[2] = target: human MOCS3 rhodanese-like domain (335-460) (human) (UniProt O95396); assay: SEC; 125 μg of purified protein on a Superdex 75 10/300 GL analytical column (Fig 1C); both purified
[3] = target: T1, GST-CtUrm1 (Chaetomium thermophilum) (UniProt G0SE11); assay: pull-down; GST-CtUrm1 on Glutathione Sepharose 4B; with 1 mM ATP; 100 mM MES pH 6.0, 100 mM NaCl, 2 mM MgCl2; 30 min at 37°C, then 90 min on beads at room temperature; Coomassie; both purified
T1 sequence: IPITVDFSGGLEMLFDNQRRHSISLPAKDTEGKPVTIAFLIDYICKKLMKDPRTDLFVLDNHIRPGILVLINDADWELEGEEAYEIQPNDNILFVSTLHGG

[4] = target: T1, GST-CtUrm1 (Chaetomium thermophilum); assay: pull-down; GST-CtUrm1 on Glutathione Sepharose 4B; with 1 mM AMP-PNP; 100 mM MES pH 6.0, 100 mM NaCl, 2 mM MgCl2; 30 min at 37°C; Coomassie; both purified
[5] = target: T2, Chaetomium thermophilum Urm1 (ubiquitin-related modifier 1) (Chaetomium thermophilum) (UniProt G0SE11); assay: SEC; 20 μM CtUba4 WT or mutant and 30 μM CtUrm1 with 40 μM ATP in 100 mM MES pH 6.0, 100 mM NaCl, 2 mM MgCl2, 37°C for 30 min; Superdex 200 Increase 10/300 GL; complex fractions on SDS-PAGE; both purified
T2 sequence: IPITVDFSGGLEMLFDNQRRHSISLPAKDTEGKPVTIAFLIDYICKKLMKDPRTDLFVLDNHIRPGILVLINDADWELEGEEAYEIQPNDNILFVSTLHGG

[6] = target: T1, GST-CtUrm1 (Chaetomium thermophilum); assay: pull-down; GST-CtUrm1 on Glutathione Sepharose 4B; without nucleotide; 100 mM MES pH 6.0, 100 mM NaCl, 2 mM MgCl2; 30 min at 37°C; Coomassie; both purified
[7] = target: T2, Chaetomium thermophilum Urm1 (ubiquitin-related modifier 1) (Chaetomium thermophilum); assay: SEC-MALS; static light scattering (RALS/LALS, Malvern OMNISEC) after Superdex 200 Increase 10/300 GL; apo and CtUrm1-bound CtUba4; 1 mg/ml; 100 mM MES pH 6.0, 100 mM NaCl, 2 mM MgCl2; both purified
[8] = target: T2, Chaetomium thermophilum Urm1 (ubiquitin-related modifier 1) (Chaetomium thermophilum); assay: crystal structure; CtUba4 C202K, CtUrm1 and ATP (1.00:1.25:2.25) incubated in 100 mM MES pH 6.0, 100 mM NaCl, 2 mM MgCl2 at 37°C for 30 min, complex isolated on Superdex 200 Increase; crystals in 0.1 M HEPES pH 7.5, 20% PEG 3350; 3.15 Å; both purified

B1: CtUba4 rhodanese-like domain R398A/R399A (domain or fragment, UniProt G0SC54 319-444)
chain: RITATAYNEKRRNGELGEHILLDTREKEHFSFGSIPGAVNVPFSKFLVKASSIKREGNSPAELLPMQPASDEAPIVVVCAAGQDSQEVVEKLKELGLDNGGKRKIMDIVGGMKAWRDEVDPDFPFI
binding [1]: no binding (tested: 1 mg/ml)

B2: human MOCS3 rhodanese-like domain (335-460) (domain or fragment, UniProt O95396 335-460)
chain: RVSVTDYKRLLDSGAFHLLLDVRPQVEVDICRLPHALHIPLKHLERRDAESLKLLKEAIWEEKQGTQEGAAVPIYVICKLGNDSQKAVKILQSLSAAQELDPLTVRDVVGGLMAWAAKIDGTFPQY
binding [2]: no binding (tested: 125 μg applied)

B3: CtUba4 C202S, full length (enzyme, UniProt G0SC54 1-444)
chain: MGSTQKSLSKEEIERYSRQMIVPGMGKEGQLRLMNAKVLIIGAGGLGCPAAQYLAGAGVGTIGIVDGDSVETSNLHRQVAHATKRVGMLKVDSLITHLIEINPLPVYVPYRFDLTPQNAAQIIKPWDVILDCTDNPATRYLISDVCVLLGKPLVSAASVQKSGQLIVLNCPPTPQGVVNKKAAPCYRCCFKKPPPPSAQTSSGEAGIMGPVVGMMGVAQAGEAIKILVSQLHMPPKEGEEVSPEKNLVQPTLLIYTYDLNSAIGPYSFRALKMGGRKKDCFACGENSTLTLDGIKSGNPNYVQFCGNMTQSTNLAPEDRITATAYNEKRRNGELGEHILLDTREKEHFSFGSIPGAVNVPFSKFLVKASSIKREGNSPAELLPMQPASDEAPIVVVCRRGQDSQEVVEKLKELGLDNGGKRKIMDIVGGMKAWRDEVDPDFPFI
binding [3]: binds

B4: CtUba4 C202A, full length (enzyme, UniProt G0SC54 1-444)
chain: MGSTQKSLSKEEIERYSRQMIVPGMGKEGQLRLMNAKVLIIGAGGLGCPAAQYLAGAGVGTIGIVDGDSVETSNLHRQVAHATKRVGMLKVDSLITHLIEINPLPVYVPYRFDLTPQNAAQIIKPWDVILDCTDNPATRYLISDVCVLLGKPLVSAASVQKSGQLIVLNCPPTPQGVVNKKAAPCYRCCFKKPPPPSAQTSAGEAGIMGPVVGMMGVAQAGEAIKILVSQLHMPPKEGEEVSPEKNLVQPTLLIYTYDLNSAIGPYSFRALKMGGRKKDCFACGENSTLTLDGIKSGNPNYVQFCGNMTQSTNLAPEDRITATAYNEKRRNGELGEHILLDTREKEHFSFGSIPGAVNVPFSKFLVKASSIKREGNSPAELLPMQPASDEAPIVVVCRRGQDSQEVVEKLKELGLDNGGKRKIMDIVGGMKAWRDEVDPDFPFI
binding [3]: binds

B5: CtUba4 306GGS314, full length (linker residues 306-314 replaced by three Gly-Gly-Ser repeats) (enzyme, UniProt G0SC54 1-444)
chain: MGSTQKSLSKEEIERYSRQMIVPGMGKEGQLRLMNAKVLIIGAGGLGCPAAQYLAGAGVGTIGIVDGDSVETSNLHRQVAHATKRVGMLKVDSLITHLIEINPLPVYVPYRFDLTPQNAAQIIKPWDVILDCTDNPATRYLISDVCVLLGKPLVSAASVQKSGQLIVLNCPPTPQGVVNKKAAPCYRCCFKKPPPPSAQTSCGEAGIMGPVVGMMGVAQAGEAIKILVSQLHMPPKEGEEVSPEKNLVQPTLLIYTYDLNSAIGPYSFRALKMGGRKKDCFACGENSTLTLDGIKSGNPNYVQFCGGSGGSGGSAPEDRITATAYNEKRRNGELGEHILLDTREKEHFSFGSIPGAVNVPFSKFLVKASSIKREGNSPAELLPMQPASDEAPIVVVCRRGQDSQEVVEKLKELGLDNGGKRKIMDIVGGMKAWRDEVDPDFPFI
binding [3]: binds

B6: Chaetomium thermophilum Uba4 (ubiquitin-like protein activator 4), full length, wild type (enzyme, UniProt G0SC54 1-444, looked up)
chain: MGSTQKSLSKEEIERYSRQMIVPGMGKEGQLRLMNAKVLIIGAGGLGCPAAQYLAGAGVGTIGIVDGDSVETSNLHRQVAHATKRVGMLKVDSLITHLIEINPLPVYVPYRFDLTPQNAAQIIKPWDVILDCTDNPATRYLISDVCVLLGKPLVSAASVQKSGQLIVLNCPPTPQGVVNKKAAPCYRCCFKKPPPPSAQTSCGEAGIMGPVVGMMGVAQAGEAIKILVSQLHMPPKEGEEVSPEKNLVQPTLLIYTYDLNSAIGPYSFRALKMGGRKKDCFACGENSTLTLDGIKSGNPNYVQFCGNMTQSTNLAPEDRITATAYNEKRRNGELGEHILLDTREKEHFSFGSIPGAVNVPFSKFLVKASSIKREGNSPAELLPMQPASDEAPIVVVCRRGQDSQEVVEKLKELGLDNGGKRKIMDIVGGMKAWRDEVDPDFPFI
notes: Uba4 of Chaetomium thermophilum, UniProt G0SC54, full length aa 1-444; Expressed from pETM30 (N-terminal His6 and GST) and pETM11 (N-terminal His6); tags cleaved with TEV; Codon-optimised gene; also called CtUba4; CtUba4 FL; source: E. coli BL21(DE3) pRARE, purified (Ni-NTA, TEV cleavage, second Ni-NTA, SEC Superdex 200); not shown: His6, N-terminal, cleaved
binding [4]: binds
binding [3]: binds
binding [5]: binds
binding [6]: no binding (condition: without ATP)
binding [7]: binds

B7: CtUba4 C397S, full length (enzyme, UniProt G0SC54 1-444)
chain: MGSTQKSLSKEEIERYSRQMIVPGMGKEGQLRLMNAKVLIIGAGGLGCPAAQYLAGAGVGTIGIVDGDSVETSNLHRQVAHATKRVGMLKVDSLITHLIEINPLPVYVPYRFDLTPQNAAQIIKPWDVILDCTDNPATRYLISDVCVLLGKPLVSAASVQKSGQLIVLNCPPTPQGVVNKKAAPCYRCCFKKPPPPSAQTSCGEAGIMGPVVGMMGVAQAGEAIKILVSQLHMPPKEGEEVSPEKNLVQPTLLIYTYDLNSAIGPYSFRALKMGGRKKDCFACGENSTLTLDGIKSGNPNYVQFCGNMTQSTNLAPEDRITATAYNEKRRNGELGEHILLDTREKEHFSFGSIPGAVNVPFSKFLVKASSIKREGNSPAELLPMQPASDEAPIVVVSRRGQDSQEVVEKLKELGLDNGGKRKIMDIVGGMKAWRDEVDPDFPFI
binding [3]: binds
binding [5]: binds

B8: CtUba4 R398A/R399A, full length (enzyme, UniProt G0SC54 1-444)
chain: MGSTQKSLSKEEIERYSRQMIVPGMGKEGQLRLMNAKVLIIGAGGLGCPAAQYLAGAGVGTIGIVDGDSVETSNLHRQVAHATKRVGMLKVDSLITHLIEINPLPVYVPYRFDLTPQNAAQIIKPWDVILDCTDNPATRYLISDVCVLLGKPLVSAASVQKSGQLIVLNCPPTPQGVVNKKAAPCYRCCFKKPPPPSAQTSCGEAGIMGPVVGMMGVAQAGEAIKILVSQLHMPPKEGEEVSPEKNLVQPTLLIYTYDLNSAIGPYSFRALKMGGRKKDCFACGENSTLTLDGIKSGNPNYVQFCGNMTQSTNLAPEDRITATAYNEKRRNGELGEHILLDTREKEHFSFGSIPGAVNVPFSKFLVKASSIKREGNSPAELLPMQPASDEAPIVVVCAAGQDSQEVVEKLKELGLDNGGKRKIMDIVGGMKAWRDEVDPDFPFI
binding [5]: binds

B9: CtUba4 C202S/C397S, full length (enzyme, UniProt G0SC54 1-444)
chain: MGSTQKSLSKEEIERYSRQMIVPGMGKEGQLRLMNAKVLIIGAGGLGCPAAQYLAGAGVGTIGIVDGDSVETSNLHRQVAHATKRVGMLKVDSLITHLIEINPLPVYVPYRFDLTPQNAAQIIKPWDVILDCTDNPATRYLISDVCVLLGKPLVSAASVQKSGQLIVLNCPPTPQGVVNKKAAPCYRCCFKKPPPPSAQTSSGEAGIMGPVVGMMGVAQAGEAIKILVSQLHMPPKEGEEVSPEKNLVQPTLLIYTYDLNSAIGPYSFRALKMGGRKKDCFACGENSTLTLDGIKSGNPNYVQFCGNMTQSTNLAPEDRITATAYNEKRRNGELGEHILLDTREKEHFSFGSIPGAVNVPFSKFLVKASSIKREGNSPAELLPMQPASDEAPIVVVSRRGQDSQEVVEKLKELGLDNGGKRKIMDIVGGMKAWRDEVDPDFPFI
binding [5]: binds

B10: CtUba4 Q401A/D402A, full length (enzyme, UniProt G0SC54 1-444)
chain: MGSTQKSLSKEEIERYSRQMIVPGMGKEGQLRLMNAKVLIIGAGGLGCPAAQYLAGAGVGTIGIVDGDSVETSNLHRQVAHATKRVGMLKVDSLITHLIEINPLPVYVPYRFDLTPQNAAQIIKPWDVILDCTDNPATRYLISDVCVLLGKPLVSAASVQKSGQLIVLNCPPTPQGVVNKKAAPCYRCCFKKPPPPSAQTSCGEAGIMGPVVGMMGVAQAGEAIKILVSQLHMPPKEGEEVSPEKNLVQPTLLIYTYDLNSAIGPYSFRALKMGGRKKDCFACGENSTLTLDGIKSGNPNYVQFCGNMTQSTNLAPEDRITATAYNEKRRNGELGEHILLDTREKEHFSFGSIPGAVNVPFSKFLVKASSIKREGNSPAELLPMQPASDEAPIVVVCRRGAASQEVVEKLKELGLDNGGKRKIMDIVGGMKAWRDEVDPDFPFI
binding [5]: binds

B11: CtUba4 C202K, full length (enzyme, Chaetomium thermophilum, UniProt G0SC54 1-444, looked up)
chain: MGSTQKSLSKEEIERYSRQMIVPGMGKEGQLRLMNAKVLIIGAGGLGCPAAQYLAGAGVGTIGIVDGDSVETSNLHRQVAHATKRVGMLKVDSLITHLIEINPLPVYVPYRFDLTPQNAAQIIKPWDVILDCTDNPATRYLISDVCVLLGKPLVSAASVQKSGQLIVLNCPPTPQGVVNKKAAPCYRCCFKKPPPPSAQTSKGEAGIMGPVVGMMGVAQAGEAIKILVSQLHMPPKEGEEVSPEKNLVQPTLLIYTYDLNSAIGPYSFRALKMGGRKKDCFACGENSTLTLDGIKSGNPNYVQFCGNMTQSTNLAPEDRITATAYNEKRRNGELGEHILLDTREKEHFSFGSIPGAVNVPFSKFLVKASSIKREGNSPAELLPMQPASDEAPIVVVCRRGQDSQEVVEKLKELGLDNGGKRKIMDIVGGMKAWRDEVDPDFPFI
notes: Uba4 of Chaetomium thermophilum, UniProt G0SC54, full length aa 1-444 with C202K; With Urm1 and ATP the epsilon-amino group of Lys202 forms a non-hydrolysable iso-peptide bond with Gly111 of Urm1; The RHD is present in the crystals but has no density; source: E. coli BL21(DE3) pRARE, purified (Ni-NTA, TEV cleavage, SEC Superdex 200); not shown: His6, N-terminal, cleaved
binding [8]: binds
binding [3]: binds
